The target in test [1] is T1, human 5-HT2AR (Homo sapiens, UniProt P28223). Particulars: for 5-HT2AR calcium mobilization Emax ± SD: percentage of response to 5-HT 10^−4 M; for EC50: read-out: 5-HT2AR calcium mobilization EC50 ± SD, CHO/K1 h5-HT2AR. (Calcium assays in cells follow changes in intracellular calcium, usually with a dye or a luminescent sensor.)
Test [2] addresses T1, human 5-HT2AR. The test is described as follows: cell-based. The settings on record: CHO-K1, read-out: 5-HT2AR calcium mobilization Emax ± SD.

T1 sequence (P28223 whole entry): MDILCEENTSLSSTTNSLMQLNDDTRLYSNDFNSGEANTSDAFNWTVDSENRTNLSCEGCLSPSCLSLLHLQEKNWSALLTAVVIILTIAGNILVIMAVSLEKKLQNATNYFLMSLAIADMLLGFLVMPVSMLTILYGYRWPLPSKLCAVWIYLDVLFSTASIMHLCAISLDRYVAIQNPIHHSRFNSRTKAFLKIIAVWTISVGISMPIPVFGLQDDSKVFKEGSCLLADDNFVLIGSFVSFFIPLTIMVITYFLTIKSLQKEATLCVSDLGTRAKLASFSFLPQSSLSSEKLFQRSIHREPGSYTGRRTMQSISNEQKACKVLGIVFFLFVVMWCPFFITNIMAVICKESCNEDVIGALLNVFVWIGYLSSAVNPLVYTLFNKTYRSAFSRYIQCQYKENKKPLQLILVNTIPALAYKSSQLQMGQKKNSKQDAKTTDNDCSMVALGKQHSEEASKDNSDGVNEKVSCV

For `NCCc1c[nH]c2ccc(O)cc12` [5-HT, reference compound], the “5-HT2AR agonist type” value on human 5-HT2AR [1] is recorded as “full agonist”.
The EC50 is the concentration that produces a half-maximal response. Regarding `C=CCN(CC=C)CCc1c[nH]c2ccc(OC)cc12` [5-MeO-DALT], at human 5-HT2AR [1], the “5-HT2AR calcium mobilization Emax ± SD” value came out at 99 ± 2 %5-HT and the 50% effective concentration (EC50) was found to be 11.3 ± 3.3 nM.
As to `CCN(CC)CCc1c[nH]c2ccc(OC)cc12` [5-MeO-DET], on human 5-HT2AR [1], the “5-HT2AR calcium mobilization Emax ± SD” value stood at 102 ± 7 %5-HT and the EC50 was determined as 17.1 ± 5.1 nM.
In general, Emax refers to the maximal effect, on the per cent scale that the assay sets. `COc1ccc2[nH]cc(CCN(C(C)C)C(C)C)c2c1` [5-MeO-DIPT, 5-methoxy-N,N-diisopropyltryptamine]: the Emax on human 5-HT2AR [2] was 99%.
Still for that read-out and setting: the figure for `COc1ccc2[nH]cc(CCN(C)C)c2c1` [5-MeO-DMT, 5-methoxy-N,N-dimethyltryptamine] is 100%.
For `CCN(CCc1c[nH]c2ccc(OC)cc12)C(C)C` [5-MeO-EIPT], at human 5-HT2AR [1], the “5-HT2AR calcium mobilization Emax ± SD” value was 103 ± 4 %5-HT and the EC50 stood at 23.6 ± 1.6 nM.
As to `C=CCN(C)CCc1c[nH]c2ccc(OC)cc12` [5-MeO-MALT], on human 5-HT2AR [1], the “5-HT2AR calcium mobilization Emax ± SD” value amounted to 99 ± 9 %5-HT and the EC50 worked out at 4.95 ± 0.47 nM.
As for `CCN(C)CCc1c[nH]c2ccc(OC)cc12` [5-MeO-MET], on human 5-HT2AR [1], the “5-HT2AR calcium mobilization Emax ± SD” value is given as 102 ± 5 %5-HT and the EC50 is 4.46 ± 0.06 nM.
Turning to `COc1ccc2[nH]cc(CCN(C)C(C)C)c2c1` [5-MeO-MIPT], on human 5-HT2AR [1], the “5-HT2AR calcium mobilization Emax ± SD” value is 96 ± 1 %5-HT and the concentration giving a half-maximal response (EC50) was determined as 5.88 ± 2.39 nM.
As to `COc1ccc2[nH]cc(CCNC(C)C)c2c1` [5-MeO-NIPT], at human 5-HT2AR [1], the “5-HT2AR calcium mobilization Emax ± SD” value was found to be 91 ± 1 %5-HT and the EC50 came out at 13.2 ± 3.6 nM.
As to `COc1ccc2[nH]cc(CCN3CCCC3)c2c1` [5-MeO-pyr-T], at human 5-HT2AR [1], the “5-HT2AR calcium mobilization Emax ± SD” value is reported as 92 ± 4 %5-HT and the half-maximal effective concentration (EC50) turned out to be 13.5 ± 2.2 nM.
Take `NCCc1ccc(O)c(O)c1` [dopamine, reference compound]: at human 5-HT2AR [1], the “5-HT2AR agonist type” value was “partial agonist”.

The values are drawn from PMC11412900 (Molecular Psychiatry, 2024).
